In patent US12535491B2, “Vaccine comprising protein-targeted (PT) extracellular DNA isolated from bacterial matrix” (priority 2018, dated 2026):

Key:
[1] = molecular target: T1, SU-DHL4 cell lines with high CD20 receptor copy numbers (Homo sapiens, UniProt P11836); assay: Binding to CD20-expressing target cells; settings: SU-DHL4, antibody concentrations up to 10 μg/mL
T1 construct: endogenous in cells; host or cells: SU-DHL4
T1 sequence (P11836 1-297): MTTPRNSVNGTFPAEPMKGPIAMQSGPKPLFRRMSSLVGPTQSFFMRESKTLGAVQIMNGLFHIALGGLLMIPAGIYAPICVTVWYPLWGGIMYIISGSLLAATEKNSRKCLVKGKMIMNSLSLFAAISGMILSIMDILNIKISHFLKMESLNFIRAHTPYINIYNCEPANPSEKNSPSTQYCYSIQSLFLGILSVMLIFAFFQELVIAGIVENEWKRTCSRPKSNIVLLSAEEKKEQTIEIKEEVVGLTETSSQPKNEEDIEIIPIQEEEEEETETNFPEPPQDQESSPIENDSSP
Method: (§1) The efficacies of Rituximab and Rituximab-Mod were compared based on Binding to CD20-expressing target cells and antibody-dependent cell-mediated cytotoxicity [ADCC] assays.
(§2) The binding of Rituximab-Mod and rituximab was assessed on SU-DHL4 cell lines with high (1,000,000) CD20 receptor copy numbers. […] The ability of Rituximab-Mod and rituximab to mediate ADCC was assessed using SU-DHL4 target cell lines. The potency of Rituximab-Mod was higher than that of rituximab.

[2] = tested on: SU-DHL4 target cell lines; assay: Antibody-dependent cell-mediated cytotoxicity (ADCC) assay; assay type: cell-based; settings: SU-DHL4 target cells
Method: as §1, §2

B1: Rituximab-Mod: modified Rituximab antibodies with added PrDs (SEQ ID NO: 5) (protein)
chain: VQLQQPGAELVKPGASVKMSCKASGYTFTSYNMHWVKQTPGRGLEWIGAIYPGNGDTSYNQKFKGKATLTADKSSSTAYMQLSSLTSEDSAVYYCARSTYYGGDWYFNVWGAGTTVTVSAASTKGPSVFPLAPSSKSTSGGTAALGCLVKDYFPEPVTVSWNSGALTSGVHTFPAVLQSSGLYSLSSVVTVPSSSLGTQTYICNVNHKPQNQNQNQNQNQNQNSNTKVDKKA[human IgG1 Fc not written out]QNQNQNQNQNQNQN
modifications: Synthetic peptide (Rituximab-Mod)
B1 was tested, and the “maximal binding intensity to tumor cells relative to rituximab at the same concentrations” value [1] was “over 2 times”, the “EC50 of target cell killing (ADCC)” value [2] was about 0.1 ng/mL and the “overall killing efficacy (ADCC) versus rituximab” value ([2]; particularly at low antibody concentrations) was “higher overall killing efficacy”.
